{"source": "paper PMC4159876", "about": "“Quantitative Analysis of Tau-Microtubule Interaction Using FRET” (International Journal of Molecular Sciences, 2014)", "binders": {"B1": {"name": "microtubules assembled with Flutax-2 from subtilisin-cleaved tubulin (S-tubulin) (complex)", "chain 1": "[in this place about 450 residues]", "chain 2": "MREIVHIQAGQCGNQIGAKFWEVISDEHGIDPTGSYHGDSDLQLERINVYYNEATGNKYVPRAILVDLEPGTMDSVRSGPFGQIFRPDNFVFGQSGAGNNWAKGHYTEGAELVDSVLDVVRKESESCDCLQGFQLTHSLGGGTGSGMGTLLISKIREEYPDRIMNTFSVMPSPKVSDTVVEPYNATLSVHQLVENTDETYSIDNEALYDICFRTLKLTTPTYGDLNHLVSATMSGVTTCLRFPGQLNADLRKLAVNMVPFPRLHFFMPGFAPLTSRGSQQYRALTVPELTQQMFDSKNMMAACDPRHGRYLTVAAVFRGRMSMKEVDEQMLNVQNKNSSYFVEWIPNNVKTAVCDIPPRGLKMSATFIGNSTAIQELFKRISEQFTAMFRRKAFLHWYTGEGMDEMEFTEAESNMNDLVSEYQQYQDATADEQ"}}, "biological_target": "T1, hTau40 protein labeled with carboxy tetramethylrhodamine succinimidyl ester (tau-rhodamine) (UniProt P10636-8 1-441, 5(6)-carboxytetramethylrhodamine (5(6)-TAMRA) on the N-terminal amine; close to 1 mole of dye per mole of protein)", "T1 construct": "tau, largest isoform (hTau40); Cys291 and Cys322 are named on this isoform; No tag is mentioned; also called labeled tau; tau derivatized with 5(6)-TAMRA", "experiment": "FRET or BRET; FRET titration of tau-rhodamine with Flutax-2 microtubules assembled from subtilisin-cleaved tubulin (S-tubulin); apparent Kd; data not shown", "conditions": "both partners purified", "data": [{"binder": "B1", "values": [{"measurement": "Kd", "value": 3.1, "unit": "µM"}]}]}
